By IC50 is meant the dose at which the fit gives 50% viability; where the fit passes the top or lowest dose, that dose stands as a limit. For AUC the same curve is integrated over the 256-fold range of doses and scaled to a fraction; the more sensitive the line, the further below 1. For some of these results: An inferred top dose comes from the curve model; the source does not state it. For some of these results: An entry number marks a drug with two screens in the source, which often give different values.
Key:
Assay in all cases: Viability of human cancer cell lines after 72 h of drug (GDSC screen)
AZD6244 = compound: Cn1cnc2c(F)c(Nc3ccc(Br)cc3Cl)c(C(=O)NOCCO)cc21 [AZD6244]; conditions: top dose 4 µM; screen: GDSC drug entry 1498; top dose inferred
Protocol: (§1)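 Human cancer cell lines in 384-well plates, medium with 10% serum, drug for 72 h over a 256-fold dose range (nine 2-fold or five 4-fold steps up to the top dose). Adherent lines were fixed and stained with the nucleic acid dye Syto60, suspension lines read with resazurin; signal relative to control wells, capped at 0 and 100%. One two-parameter sigmoid per drug and line, fitted in a mixed model over all curves with the slope shared within a line.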

EX-527 = compound: NC(=O)C1CCCc2c1[nH]c1ccc(Cl)cc21 [EX-527]; conditions: top dose 20 µM
Protocol: as §1

YM201636 = compound: Nc1ccc(C(=O)Nc2cccc(-c3nc(N4CCOCC4)c4oc5ncccc5c4n3)c2)cn1 [YM201636]; conditions: top dose 5.12 µM; top dose inferred
Protocol: as §1

AZ628 = compound: Cc1ccc(NC(=O)c2cccc(C(C)(C)C#N)c2)cc1Nc1ccc2ncn(C)c(=O)c2c1 [AZ628]; conditions: top dose 4 µM; top dose inferred
Protocol: as §1

AS601245 = compound: N#CC(c1ccnc(NCCc2cccnc2)n1)c1nc2ccccc2s1 [AS601245]; conditions: top dose 8 µM; top dose inferred
Protocol: as §1

Row | Cell Line | AUC (AZD6244) | IC50 (AZD6244) | AUC (EX-527) | IC50 (EX-527) | AUC (YM201636) | IC50 (YM201636) | AUC (AZ628) | IC50 (AZ628) | AUC (AS601245) | IC50 (AS601245)
1 | SU-DHL-4 (B-cell lymphoma, suspension) | 0.996 | > 4 µM | 0.997 | > 20 µM | 0.856 | 2.43 µM | 0.997 | > 4 µM | 0.883 | 4.51 µM
2 | SU-DHL-6 (B-cell lymphoma, suspension) | 0.995 | > 4 µM | 0.995 | > 20 µM | 0.706 | 1.02 µM | 0.886 | 2.47 µM | 0.95 | > 8 µM
3 | SU-DHL-8 (B-cell lymphoma, suspension) | 0.972 | > 4 µM | 0.987 | > 20 µM | 0.784 | 2.02 µM | 0.74 | 1.15 µM | 0.88 | 7.31 µM
4 | SU-DHL-16 (B-cell lymphoma, suspension) | 0.986 | > 4 µM | 0.996 | > 20 µM | 0.699 | 0.971 µM | 0.975 | > 4 µM | 0.878 | 4.48 µM
5 | SUP-HD1 (Hodgkin lymphoma, suspension) | 0.97 | > 4 µM | 0.988 | > 20 µM | 0.756 | 1.68 µM | 0.856 | 2.98 µM | 0.852 | 5.75 µM
6 | SUP-M2 (anaplastic large cell lymphoma, suspension) | 0.742 | 0.997 µM | 0.971 | > 20 µM | 0.908 | 4.07 µM | 0.994 | > 4 µM | 0.906 | 6.25 µM
7 | SUP-T1 (T-cell lymphoblastic leukaemia, suspension) | 0.981 | > 4 µM | 0.977 | > 20 µM | 0.881 | 4.51 µM | 0.789 | 1.59 µM | 0.852 | 5.34 µM
8 | SW684 (fibrosarcoma, adherent) | 0.92 | > 4 µM | 0.979 | > 20 µM | 0.983 | > 5.12 µM | 0.982 | > 4 µM | 0.981 | > 8 µM
9 | SW872 (soft tissue, adherent) | 0.667 | 0.695 µM | 0.988 | > 20 µM | 0.943 | > 5.12 µM | 0.371 | 0.115 µM | 0.712 | 1.85 µM
10 | SW954 (urogenital system, adherent) | 0.779 | 1.65 µM | 0.977 | > 20 µM | 0.831 | 3.31 µM | 0.937 | > 4 µM | 0.923 | > 8 µM
11 | SW962 (urogenital system, adherent) | 0.698 | 1.04 µM | 0.977 | > 20 µM | 0.817 | 3.79 µM | 0.892 | > 4 µM | 0.85 | > 8 µM
12 | TC-71 (Ewing sarcoma, adherent) | 0.982 | > 4 µM | 0.988 | > 20 µM | 0.702 | 1.06 µM | 0.992 | > 4 µM | 0.992 | > 8 µM
13 | TE-1 (oesophagus, adherent) | 0.806 | 2.71 µM | 0.976 | > 20 µM | 0.974 | > 5.12 µM | 0.886 | > 4 µM | 0.934 | > 8 µM
14 | TE-5 (oesophagus, adherent) | 0.798 | 2.23 µM | 0.983 | > 20 µM | 0.959 | > 5.12 µM | 0.788 | 2.06 µM | 0.864 | > 8 µM
15 | TE-6 (oesophagus, adherent) | 0.973 | > 4 µM | 0.984 | > 20 µM | 0.904 | > 5.12 µM | 0.975 | > 4 µM | 0.889 | > 8 µM
16 | TE-8 (oesophagus, adherent) | 0.777 | 1.72 µM | 0.985 | > 20 µM | 0.927 | > 5.12 µM | 0.919 | > 4 µM | 0.781 | 3.57 µM
17 | TE-9 (oesophagus, adherent) | 0.931 | > 4 µM | 0.981 | > 20 µM | 0.968 | > 5.12 µM | 0.881 | > 4 µM | 0.834 | 5.5 µM
18 | TE-10 (oesophagus, adherent) | 0.763 | 1.41 µM | 0.983 | > 20 µM | 0.916 | > 5.12 µM | 0.975 | > 4 µM | 0.703 | 1.84 µM
19 | TE-12 (oesophagus, suspension) | 0.907 | > 4 µM | 0.979 | > 20 µM | 0.891 | > 5.12 µM | 0.721 | 1.23 µM | 0.688 | 1.89 µM

Row | Cell Line | AUC (AZD6244) | IC50 (AZD6244) | AUC (EX-527) | IC50 (EX-527) | AUC (YM201636) | IC50 (YM201636) | AUC (AZ628) | IC50 (AZ628) | AUC (AS601245) | IC50 (AS601245)
20 | TE-15 (oesophagus, suspension) | 0.896 | > 4 µM | 0.984 | > 20 µM | 0.894 | > 5.12 µM | 0.976 | > 4 µM | 0.615 | 1.08 µM
21 | TGBC1TKB (biliary tract, adherent) | 0.944 | > 4 µM | 0.987 | > 20 µM | 0.962 | > 5.12 µM | 0.988 | > 4 µM | 0.91 | > 8 µM
22 | TGW (neuroblastoma, adherent) | 0.989 | > 4 µM | 0.976 | > 20 µM | 0.88 | 4.04 µM | 0.984 | > 4 µM | 0.947 | > 8 µM
23 | TK10 (kidney, adherent) | 0.672 | 0.838 µM | 0.973 | > 20 µM | 0.975 | > 5.12 µM | 0.869 | > 4 µM | 0.79 | 4.4 µM
24 | TK (B-cell lymphoma, suspension) | 0.985 | > 4 µM | 0.99 | > 20 µM | 0.846 | 3.26 µM | 0.911 | > 4 µM | 0.933 | > 8 µM
25 | TUR (B-cell lymphoma, suspension) | 0.954 | > 4 µM | 0.985 | > 20 µM | 0.805 | 2.35 µM | 0.974 | > 4 µM | 0.861 | 5.95 µM
26 | U-87-MG (glioma, adherent) | 0.841 | 3.5 µM | 0.984 | > 20 µM | 0.863 | > 5.12 µM | 0.965 | > 4 µM | 0.935 | > 8 µM
27 | U-698-M (B-cell leukaemia, suspension) | 0.957 | > 4 µM | 0.983 | > 20 µM | 0.758 | 1.77 µM | 0.932 | > 4 µM | 0.758 | 2.78 µM
28 | UACC-257 (melanoma, adherent) | 0.399 | 0.123 µM | 0.978 | > 20 µM | 0.836 | 4.63 µM | 0.308 | 0.0629 µM | 0.956 | > 8 µM
29 | VA-ES-BJ (soft tissue, adherent) | 0.978 | > 4 µM | 0.985 | > 20 µM | 0.956 | > 5.12 µM | 0.969 | > 4 µM | 0.844 | 6.2 µM
30 | VAL (B-cell lymphoma, suspension) | 0.985 | > 4 µM | 0.968 | > 20 µM | 0.809 | 2.68 µM | 0.722 | 1.07 µM | 0.826 | 4.87 µM
31 | VCaP (prostate, adherent) | 0.983 | > 4 µM | 0.902 | > 20 µM | 0.833 | 3.49 µM | 0.969 | > 4 µM | 0.885 | > 8 µM
32 | WIL2-NS (lymphoid neoplasm, suspension) | 0.982 | > 4 µM | 0.992 | > 20 µM | 0.839 | 2.6 µM | 0.948 | > 4 µM | 0.875 | 5.46 µM
33 | WSU-DLCL2 (B-cell lymphoma, suspension) | 0.975 | > 4 µM | 0.992 | > 20 µM | 0.946 | > 5.12 µM | 0.993 | > 4 µM | 0.774 | 2.62 µM
34 | WSU-NHL (lymphoid neoplasm, suspension) | 0.985 | > 4 µM | 0.985 | > 20 µM | 0.835 | 2.82 µM | 0.943 | > 4 µM | 0.849 | 4.96 µM
35 | YT (lymphoid neoplasm, suspension) | 0.991 | > 4 µM | 0.981 | > 20 µM | 0.863 | 3.36 µM | 0.936 | > 4 µM | 0.892 | 6.93 µM
36 | no-10 (glioma, adherent) | 0.913 | > 4 µM | 0.983 | > 20 µM | 0.951 | > 5.12 µM | 0.918 | > 4 µM | 0.925 | > 8 µM
37 | no-11 (glioma, adherent) | 0.919 | > 4 µM | 0.981 | > 20 µM | 0.954 | > 5.12 µM | 0.982 | > 4 µM | 0.879 | > 8 µM

Reference: the supplement of paper PMC4967469
